{"source": "ChEMBL document CHEMBL4888484", "about": "“Replenishing the malaria drug discovery pipeline: Screening and hit evaluation of the MMV Hit Generation Library 1 (HGL1) against asexual blood stage Plasmodium falciparum ,using a nano luciferase reporter read-out” (2022)", "note": "Among all 150,000 compounds or so, about 540 (0.36%) showed an effect of 50% or more. The list shows a part of the results."}
{"test_system": "Plasmodium falciparum", "test": "Primary screen in NF54 nanoGlo assay, in single point, at 2uM, 72h; a lower Z score goes with more inhibition", "assay_type": "functional, Erythrocyte", "conditions": "timepoint 72 hour", "units": {"% Inhibition": "%"}}
{"smiles": "CC(C)N(Cc1cnn(C)c1)C(=O)NCc1cccc(F)c1", "% Inhibition": 2, "Z score": -0.3}
{"smiles": "O=C(Cn1cnnn1)NCCc1nc(C(F)(F)F)cs1", "% Inhibition": -8, "Z score": 1.04}
{"smiles": "CN(CCc1ccncc1)Cc1ccc(F)cc1C#N", "% Inhibition": -9, "Z score": 0.93}
{"smiles": "Cc1cc(CN(C)Cc2ccc(C)o2)c(C)c(CN2CCN(C)CC2)c1", "% Inhibition": -2, "Z score": 0.47}
{"smiles": "Cc1ccc2sc(C(=O)N3CCCS3(=O)=O)cc2c1", "% Inhibition": -4, "Z score": 0.56}
{"smiles": "COc1cccc(N2Cc3nn(CC(=O)N4CCCC4)c(=O)n3C2=O)c1", "% Inhibition": -6, "Z score": 0.88}
{"smiles": "CN1CCN(c2ccc(S(=O)(=O)N3CCOCC3)cc2N)CC1", "% Inhibition": -4, "Z score": 0.85}
{"smiles": "CCc1nc(CCNCc2ncc[nH]2)sc1C", "% Inhibition": -3, "Z score": 0.3}
{"smiles": "CC1CCN(C(=O)CCCCC(=O)N2CCC(C)CC2)CC1", "% Inhibition": -6, "Z score": 0.86}
{"smiles": "N[C@@H](C(=O)NCC1(Cn2ccnc2)CC1)c1ccccc1", "% Inhibition": -7, "Z score": 0.92}
{"smiles": "C[C@@H](C(=O)N1CCOc2ccc(CN3CCCCC3)cc2C1)c1ccccc1", "% Inhibition": -11, "Z score": 1.22}
{"smiles": "Cc1ncsc1-c1nc(-c2nnc(-c3ccccc3)o2)no1", "% Inhibition": 23, "Z score": -2.57}
{"smiles": "O=C(NCCc1ccccc1)[C@H]1C[C@@H](C(=O)Nc2ccc(F)cc2)CN(Cc2ccncc2)C1", "% Inhibition": 2, "Z score": -0.26}
{"smiles": "C[C@H]1CC(C)(C)N(C)c2ccc(/C=C/c3c(C(=O)O)cnc4ccnn34)cc21", "% Inhibition": 37, "Z score": -4.2}
{"smiles": "CC1(C)[C@@H](c2cccc(F)c2)CCN1Cc1ncccc1C(=O)O", "% Inhibition": -11, "Z score": 1.77}
{"smiles": "Cc1nn(C)c(Cl)c1-c1nc2c([nH]1)c(C)nn2C1CCCCC1", "% Inhibition": 1, "Z score": -0.09}
{"smiles": "CCN(C(C)c1ccc(F)cc1)S(=O)(=O)C(C)COC", "note": "(centres undefined)", "% Inhibition": -6, "Z score": 0.79}
{"smiles": "CC(C)NCc1ccccc1-c1cccc2ncccc12", "% Inhibition": -6, "Z score": 0.59}
{"smiles": "CCOC(=O)c1cc(CC)nc2c1c(C1CC1)nn2-c1ccc(OC)cc1", "% Inhibition": 3, "Z score": -0.54}
{"smiles": "CC(C)c1nc(C(=O)NCCc2ccc(F)cc2)c[nH]1", "% Inhibition": -5, "Z score": 0.55}
{"smiles": "Cc1ncc(NC(=O)c2ccc3nncn3c2)cn1", "% Inhibition": -4, "Z score": 0.53}
{"smiles": "Cn1ccnc1-c1ccccc1C(=O)N1CCN(Cc2ccccc2)CC1", "% Inhibition": -18, "Z score": 2.68}
{"smiles": "C=CCNC(=O)c1ccc(N[C@H]2CC(=O)N(C(C)(C)C)C2)nc1", "% Inhibition": 30, "Z score": -3.4}
{"smiles": "C[C@@]1(C(=O)Nc2cccc(OCCn3cncn3)c2)COc2ccccc2O1", "% Inhibition": -13, "Z score": 1.61}
{"smiles": "CCN(C[C@H]1COc2ccccc2O1)C(=O)Cc1cccc(N)c1", "% Inhibition": -5, "Z score": 0.57}
{"smiles": "CC[C@](C)(NC(=O)Nc1cncnc1OC)c1nc(C)cs1", "% Inhibition": 36, "Z score": -5.14}
{"smiles": "COc1ccc(C2N(c3ccccc3)OC3C(=O)N(c4ccc(OC)cc4)C(=O)C32c2ccccc2)cc1", "note": "(centres undefined)", "% Inhibition": -5, "Z score": 0.49}
{"smiles": "CCc1nccn1CCC(=O)N[C@@H](C)Cc1cnccn1", "% Inhibition": -6, "Z score": 0.99}
{"smiles": "Cc1cc(CC(=O)N2CCCS(=O)(=O)C[C@H]2c2ccccc2)on1", "% Inhibition": -6, "Z score": 0.77}
{"smiles": "CCc1ccc(Cn2nc(CC(N)=O)nc2CCc2scnc2C)cc1", "% Inhibition": 4, "Z score": -0.8}
{"smiles": "COc1cc(OC)cc([C@H]2CCN(C(=O)c3ccc(=O)n(C)n3)C2)c1", "% Inhibition": -5, "Z score": 0.65}
{"smiles": "CCc1nn(C)c(Cl)c1CN1CCC2(CC1)c1nc[nH]c1CCN2C", "% Inhibition": -18, "Z score": 1.95}
{"smiles": "Cc1nc(C(=O)N2CC3CCCCC3C2)cs1", "note": "(centres undefined)", "% Inhibition": -14, "Z score": 1.94}
{"smiles": "CNC/C=C/COc1ccccc1C(C)C", "% Inhibition": -2, "Z score": 0.24}
{"smiles": "CCCOCC(=O)Nc1cc(-c2cccnc2)n[nH]1", "% Inhibition": 2, "Z score": -0.29}
{"smiles": "C[C@]1(C(=O)Nc2ccc(S(=O)(=O)Nc3nccs3)cc2)CC1(Cl)Cl", "% Inhibition": -12, "Z score": 1.71}
{"smiles": "Cc1cc(C(=O)N2C[C@@H]3C[C@H](N(C)C)CN3C(=O)[C@@H]2CC(C)C)no1", "% Inhibition": -11, "Z score": 1.35}
{"smiles": "Fc1cnc(N2CCCN(c3nnc(C(F)(F)F)s3)CC2)nc1", "% Inhibition": -12, "Z score": 1.2}
{"smiles": "COc1ccc(CNC(=O)c2ccc(OC)nn2)cc1", "% Inhibition": -9, "Z score": 1.52}
{"smiles": "COc1cc(-c2ccno2)ccc1S(=O)(=O)N1CCN(c2cccc(C)c2)[C@@H](C)C1", "% Inhibition": 1, "Z score": -0.2}
{"smiles": "Cc1ccccc1CCCN(C)C1CCS(=O)(=O)CC1", "% Inhibition": 12, "Z score": -1.26}
{"smiles": "CN(C)c1cncc(-c2cc(Cl)cc3c2O[C@@H](CN)C3)n1", "% Inhibition": -14, "Z score": 2.22}
{"smiles": "O=C(CCc1ccc(S(=O)(=O)N2CCCC2)cc1)Nc1ccc2c(c1)OCCO2", "% Inhibition": -12, "Z score": 1.58}
{"smiles": "O=C(Nc1cnccn1)c1ccc(Cl)cn1", "% Inhibition": -8, "Z score": 0.78}
{"smiles": "COC(=O)c1cc(C(=O)Nc2cccc(N3CCCC3=O)c2)ccn1", "% Inhibition": -11, "Z score": 1.61}
{"smiles": "CC(=O)Nc1ccc(N2C[C@@H](C(=O)Nc3ccncc3)CC2=O)cc1", "% Inhibition": -15, "Z score": 2.14}
{"smiles": "COC[C@H]1NC(=O)CC[C@H]1C(=O)Nc1cc(OC)ccc1OC", "% Inhibition": -18, "Z score": 2.15}
{"smiles": "Cc1cc(C)n(CC[C@H]2CC(=O)Nc3c2c(-c2cccnc2)nn3C)n1", "% Inhibition": -18, "Z score": 1.7}
{"smiles": "C[C@H](NC(=O)NCC(=O)NC(C)(C)C)c1ccc(F)cc1Cl", "% Inhibition": -16, "Z score": 1.72}
{"smiles": "CCOC(=O)NCCC(=O)N(C)Cc1ccco1", "% Inhibition": -5, "Z score": 0.52}
{"smiles": "CCOC1CCN(C(=O)c2csc3ccccc23)CC1C", "note": "(centres undefined)", "% Inhibition": -12, "Z score": 1.44}
{"smiles": "COC(=O)c1nnc2ccc(C)cc2c1O", "% Inhibition": -4, "Z score": 0.73}
{"smiles": "CCCOc1ccc(-c2ccc(C(=O)N3CCOC(C)(C)C3)cc2)cc1CO", "% Inhibition": -6, "Z score": 0.93}
{"smiles": "COC(=O)CC[C@H]1CCCCN1c1nc2c(s1)c(C)nn2C", "% Inhibition": -12, "Z score": 2.04}
{"smiles": "C#CCN[C@H](c1ccc(OC)cc1)C(F)(F)F", "% Inhibition": -8, "Z score": 1.27}
{"smiles": "Cc1nccc(NCc2cccc(C(=O)N3CCN(c4cnccn4)CC3)c2)n1", "% Inhibition": -7, "Z score": 0.89}
{"smiles": "N#Cc1ccnc(O[C@H]2CCCN(C(=O)Nc3cccs3)C2)c1", "% Inhibition": -8, "Z score": 1.26}
{"smiles": "O=C(NCC1CCCCC1)C1=CCN(Cc2ccc(F)cc2)CC1", "% Inhibition": -8, "Z score": 1.16}
{"smiles": "Cc1c(CNC(=O)N2CCN(C(=O)c3ccsc3)CC2)cnn1C", "% Inhibition": -17, "Z score": 1.77}
{"smiles": "CC(=O)N1CC[C@H](NC(=O)CCNS(=O)(=O)c2ccc(Cl)cc2)C1", "% Inhibition": -2, "Z score": 0.3}
{"smiles": "COc1ccc(-n2nc3nc(NCCc4ccccn4)nc(-c4cccc(F)c4F)c3c2N)cc1", "% Inhibition": -6, "Z score": 1.07}
{"smiles": "CN(C)c1ccc(NC(=O)c2cc3c(s2)CCCCC3)cn1", "% Inhibition": 3, "Z score": -0.49}
{"smiles": "Cn1c(-c2ccccn2)nn(Cc2ccc(Cl)c(Cl)c2)c1=O", "% Inhibition": 3, "Z score": -0.4}
{"smiles": "CC(C)(C)c1cc(C[C@@H]2C[C@H](NS(C)(=O)=O)C2(C)C)no1", "% Inhibition": -2, "Z score": 0.28}
{"smiles": "COc1ccc(NC(C)(C)C(=O)N[C@@H](C)CN2CCCC2)cc1", "% Inhibition": -5, "Z score": 1.02}
{"smiles": "Cn1nc(-c2cccnc2)c2c1NC(=O)C[C@@H]2c1cnc(N2CCCC2)nc1", "% Inhibition": -8, "Z score": 1.49}
{"smiles": "O=C1COC(=O)N1[C@H]1CCN(S(=O)(=O)c2cccs2)C1", "% Inhibition": -16, "Z score": 1.8}
{"smiles": "CCC(CC)C(=O)NCc1c(C)noc1C", "% Inhibition": 7, "Z score": -0.86}
{"smiles": "Cn1nnc(CNC[C@H](O)c2ccc(Cl)c(Cl)c2)n1", "% Inhibition": 5, "Z score": -1.08}
{"smiles": "COc1ccc(C(=O)NCC2(N3CCCC3)CCCC2)cc1C", "% Inhibition": -2, "Z score": 0.26}
{"smiles": "Cc1nc(NCCCN2CCC[C@H](CO)C2)ccc1Cl", "% Inhibition": 2, "Z score": -0.33}
{"smiles": "Cc1ccc(C(=O)N2CCc3cc4ccccc4nc32)cc1", "% Inhibition": -10, "Z score": 1.13}
{"smiles": "c1cc(CN2C[C@@H]3CC[C@H]2CN(c2cnccn2)C3)c2nonc2c1", "% Inhibition": -14, "Z score": 1.37}
{"smiles": "Cc1nc(O)cc(CNC(=O)CO[C@H](c2ccccc2)C(F)(F)F)n1", "% Inhibition": -5, "Z score": 0.65}
{"smiles": "CN(Cc1ccsc1)C(=O)CNC(=O)c1ccc(F)cc1F", "% Inhibition": 1, "Z score": -0.1}
{"smiles": "Cc1ccccc1[C@H](C)NS(C)(=O)=O", "% Inhibition": -10, "Z score": 1.97}
{"smiles": "CCC(=O)N1c2ccc(S(=O)(=O)N3CCCCC3)cc2C[C@H]1C(=O)NCCCc1ccccc1", "% Inhibition": -13, "Z score": 1.66}
{"smiles": "COc1ccccc1N(CC(F)(F)F)C(=O)Cc1ccc(C)nc1", "% Inhibition": 16, "Z score": -2.82}
{"smiles": "O=S(=O)(C1CC1)N1CCO[C@H]2COCC[C@H]21", "% Inhibition": -10, "Z score": 1.98}
{"smiles": "Cc1cc(-n2nc(C)nc2-c2ccc([C@@H]3CCCN3)s2)ccn1", "% Inhibition": -13, "Z score": 1.36}
{"smiles": "CCC(COc1ccccc1)NC(C)c1cnn(C)c1", "note": "(centres undefined)", "% Inhibition": -9, "Z score": 0.96}
{"smiles": "COc1ccc(O[C@H]2COCCN(C(=O)c3cccnc3)C2)cc1", "% Inhibition": 16, "Z score": -1.89}
{"smiles": "COC(=O)[C@H](Cc1ccncc1)NC(=O)c1cc(Cl)cn1C", "% Inhibition": -4, "Z score": 0.47}
{"smiles": "CC(=O)c1ccc(CNC(=O)C#Cc2ccccc2)nc1C", "% Inhibition": 1, "Z score": -0.21}
{"smiles": "Cc1ccoc1CNC(=O)N1CCn2c(C3CCCC3)nnc2[C@@H]1C", "% Inhibition": -9, "Z score": 1.51}
{"smiles": "Cc1cn(C)nc1CNc1ncccc1C#N", "% Inhibition": -4, "Z score": 0.57}
{"smiles": "c1ccc(-c2nc([C@H]3CCOC3)no2)c(-c2ncc[nH]2)c1", "% Inhibition": -6, "Z score": 0.63}
